# Reference: paper PMC4336329 (PLoS ONE, 2015)
# Screen size: about 310,000 compounds; about 2,200 (0.71%) showed an effect of 50% or more. Effects have a minus sign here. The list shows a part of the results.
# Target: human ether-à-go-go-related gene (hERG) potassium channel (human, UniProt Q12809)
# Experiment: primary screen, population patch clamp on CHO cells stably expressing hERG
# Sequence of human ether-à-go-go-related gene (hERG) potassium channel (Q12809 whole entry, looked up): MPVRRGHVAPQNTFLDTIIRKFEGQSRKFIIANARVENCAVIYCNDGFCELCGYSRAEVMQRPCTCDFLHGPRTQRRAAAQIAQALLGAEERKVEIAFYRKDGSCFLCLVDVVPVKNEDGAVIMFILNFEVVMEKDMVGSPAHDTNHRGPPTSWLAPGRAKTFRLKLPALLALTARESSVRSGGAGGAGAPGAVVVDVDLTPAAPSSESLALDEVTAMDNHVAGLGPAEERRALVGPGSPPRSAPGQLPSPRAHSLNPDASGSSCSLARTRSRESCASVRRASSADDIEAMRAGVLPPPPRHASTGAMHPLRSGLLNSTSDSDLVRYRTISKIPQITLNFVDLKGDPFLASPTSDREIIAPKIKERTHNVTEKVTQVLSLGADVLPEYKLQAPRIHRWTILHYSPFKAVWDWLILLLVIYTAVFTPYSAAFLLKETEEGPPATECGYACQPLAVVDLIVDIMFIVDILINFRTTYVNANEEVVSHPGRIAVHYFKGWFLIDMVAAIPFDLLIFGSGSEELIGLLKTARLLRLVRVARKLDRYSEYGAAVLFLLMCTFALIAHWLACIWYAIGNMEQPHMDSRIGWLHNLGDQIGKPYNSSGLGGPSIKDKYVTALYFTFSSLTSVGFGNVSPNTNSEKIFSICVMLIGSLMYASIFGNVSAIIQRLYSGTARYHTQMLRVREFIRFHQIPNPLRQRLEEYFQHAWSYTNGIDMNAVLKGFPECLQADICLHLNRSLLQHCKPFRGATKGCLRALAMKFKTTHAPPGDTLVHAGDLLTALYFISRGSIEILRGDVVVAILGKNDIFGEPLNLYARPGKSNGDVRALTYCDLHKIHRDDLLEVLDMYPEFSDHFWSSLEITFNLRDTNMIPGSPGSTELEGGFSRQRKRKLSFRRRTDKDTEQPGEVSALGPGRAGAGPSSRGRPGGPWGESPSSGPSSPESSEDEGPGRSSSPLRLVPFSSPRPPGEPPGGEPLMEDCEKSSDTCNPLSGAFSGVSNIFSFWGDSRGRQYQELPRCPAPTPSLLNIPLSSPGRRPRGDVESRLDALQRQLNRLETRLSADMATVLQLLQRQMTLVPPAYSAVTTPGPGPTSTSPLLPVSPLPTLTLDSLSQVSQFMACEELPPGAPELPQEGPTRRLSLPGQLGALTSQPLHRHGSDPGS
row,Compound,"hERG current change (%, negative = inhibition) at 1uM [%]"
1,O=C(NCC(=O)N1CCCCC1)c1ccc(Br)o1,11.7
2,Cc1cc(C)cc(NC(=O)c2cc3c(=O)n4ccccc4nc3s2)c1,8.07
3,COc1cccc(-c2csc(N3CCN(C(=S)Nc4cccc(Cl)c4)CC3)n2)c1,10.6
4,Nc1c(-c2ccc(Cl)cc2)cnc2ncnn12,1.49
5,COc1ccc(NC(=O)C2CCCN(c3c4c(nc5ncnn35)CCC4)C2)cc1OC (stereo not shown),0.336
6,Cc1c(NC(=O)c2coc(=O)c(Br)c2)c(=O)n(-c2ccccc2)n1C,3.64
7,Cc1cccc(-c2cc(C(=O)Nc3c(C)n(C)n(-c4ccccc4)c3=O)c3ccccc3n2)c1,9.94
8,COc1ccc(CC(=O)NNS(=O)(=O)c2ccccc2)cc1OC,10.5
9,COc1ccc(CCN(C)C/C=C/c2ccccc2[N+](=O)[O-])cc1OC,-54.3
10,COc1ccc(CCNC(=O)c2oc3ccc(OC)cc3c2C)cc1,6.61
11,CCCCN1C(=O)/C(=C2\SC(N3CCOCC3)=NC2=O)c2ccccc21,14.4
12,C(=Nc1ccc(Nc2ccccc2)cc1)c1ccc2ccccc2c1,14.6
13,COc1ccccc1OCCNC(=O)c1ccc(C)o1,8.63
14,O=C(O)c1ccc(Sc2nnc3ccccn23)c([N+](=O)[O-])c1,10.9
15,O=C(Cc1ccc(Br)cc1)N(Cc1ccccc1)c1ccccn1,4.16
16,FC(F)Oc1ccc(/C=N/c2c(-c3ccc(OC(F)F)cc3)nc3n2CCS3)cc1,20.4
17,O=S(=O)(c1ccc(SCCO)nc1)N1CCCC1,8.34
18,O=C(NC1CCCCCC1)c1ccc(S(=O)(=O)NCc2ccco2)cc1,4.82
19,COC(=O)/C=C/c1ccsc1NC(C)=O,11
20,Cc1ccsc1C(=O)NNC(=O)c1cccc(S(=O)(=O)N2CCCC2)c1,7.39
21,O=[N+]([O-])c1cc(S(=O)(=O)N2CCCC2)ccc1N/N=C/c1ccccn1,25.7
22,O=C(NC1CCCC1)c1cc(-c2ccccc2O)on1,8.71
23,CCNC(=S)Nc1sc2c(c1C#N)CCC(C)C2 (stereo not shown),6.1
24,COc1ccc(OC)c(/C=N/NC(=O)c2cc3c(OC)c(OC)ccc3[nH]2)c1,2.67
25,CN(C)S(=O)(=O)c1cccc(NC(=O)COC(=O)CCc2nc3ccccc3s2)c1,0.74
